# Measurements published in the supplement of paper PMC10037445.
# Over roughly 2,900 compounds, “IRF Lucia reporter activity, fold change vs agonist alone” has its median near 0.9; the highest 2% begin near 2.8. The list shows a part of the results.
# Experiments:
# RAW-Dual [1] = test: IRF Lucia reporter activity, fold change vs agonist alone; cytotoxicity flag (confluency mask): not cytotoxic; higher = enhanced IRF activity
# Summary of the method: (§1)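 Reporter activity is given as fold change relative to agonist-alone wells. To measure it, 50 nL of library stock was pin-tooled onto RAW-Dual macrophages (50,000 cells/well, DMEM, 384-well plates), a PRR agonist followed 1 h later, and cells stayed at 37 °C, 5% CO2. Twenty hours on, supernatant was assayed for IRF (QuantiLuc luminescence) and NF-κB (QuantiBlue, 620 nm absorbance), and wells under 70% of agonist-control IncuCyte confluency in both mask sets were marked cytotoxic.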
# RAW-Dual [2] = test: IRF Lucia reporter activity, fold change vs agonist alone; cytotoxicity flag (confluency mask): cytotoxic (confluency <70% of control); higher = enhanced IRF activity
# Summary of the method: as §1
# RAW-Dual [3] = test: IRF Lucia reporter activity, fold change vs agonist alone; higher = enhanced IRF activity; settings: agonist: MPLA (TLR4) […]
# Summary of the method: as §1
# [4] = agonist: 3'3'-cGAMP (STING) 10 ug/mL
# [5] = library stock concentration (final ~1000-fold dilution): 10 mM, cytotoxicity flag (confluency mask): not cytotoxic
smiles,measurement,setting,value
CN1c2ccccc2C(=O)Nc2cnc(Nc3ccc(N4CCC(O)CC4)cc3)nc21 (library stock concentration (final ~1000-fold dilution): 10 mM),IRF Lucia reporter activity,RAW-Dual [1]; [4],0.137
same,IRF Lucia reporter activity,RAW-Dual [1]; agonist: LPS (TLR4) 0.1 ug/mL,0.438
C=C(Cc1ccccc1Cl)C(=O)OCC (library stock concentration (final ~1000-fold dilution): 10 mM),IRF Lucia reporter activity,RAW-Dual [2]; [4],0.845
same,IRF Lucia reporter activity,RAW-Dual [2]; agonist: LPS (TLR4) 0.1 ug/mL,0.808
CC12CC(O)C3CC1(OC1OC(CO)C(O)C(O)C1O)C3(COC(=O)c1ccccc1)C(=O)O2 (configuration not stated) (library stock concentration (final ~1000-fold dilution): 10 mM),IRF Lucia reporter activity,RAW-Dual [1]; [4],0.978
same,IRF Lucia reporter activity,RAW-Dual [1]; agonist: LPS (TLR4) 0.1 ug/mL,1.12
CC12CCC3C(CCC4C(C)(C(=O)O)CCCC34C)(CC1=O)C2 (configuration not stated) (library stock concentration (final ~1000-fold dilution): 10 mM),IRF Lucia reporter activity,RAW-Dual [1]; [4],1.08
same,IRF Lucia reporter activity,RAW-Dual [1]; agonist: LPS (TLR4) 0.1 ug/mL,1.5
CC(C)(C)c1nc(-c2cccc(NS(=O)(=O)c3c(F)cccc3F)c2F)c(-c2ccnc(N)n2)s1,IRF Lucia reporter activity,"RAW-Dual [3]; library stock concentration (final ~1000-fold dilution): 10 mM, cytotoxicity flag (confluency mask): cytotoxic (confluency <70% of control)",0.404
CC(C)(C)c1nc(-c2cccc(NS(=O)(=O)c3c(F)cccc3F)c2F)c(-c2ccnc(N)n2)s1 (library stock concentration (final ~1000-fold dilution): 10 mM),IRF Lucia reporter activity,RAW-Dual [2]; [4],0.65
same,IRF Lucia reporter activity,RAW-Dual [2]; agonist: LPS (TLR4) 0.1 ug/mL,0.5
Cc1c(C(=O)Nc2ccc(N3CCC(N4CCOCC4)CC3)c(C#N)c2)cnn1-c1ccc(Cl)cc1,IRF Lucia reporter activity,RAW-Dual [3]; [5],0.726
Cc1c(C(=O)Nc2ccc(N3CCC(N4CCOCC4)CC3)c(C#N)c2)cnn1-c1ccc(Cl)cc1 (library stock concentration (final ~1000-fold dilution): 10 mM),IRF Lucia reporter activity,RAW-Dual [1]; [4],0.0482
same,IRF Lucia reporter activity,RAW-Dual [1]; agonist: LPS (TLR4) 0.1 ug/mL,0.734
Cc1cc(Nc2cc(N)ncn2)c(=O)n2c1C(=O)NC21CCCCC1 (library stock concentration (final ~1000-fold dilution): 10 mM),IRF Lucia reporter activity,RAW-Dual [1]; [4],0.431
same,IRF Lucia reporter activity,RAW-Dual [1]; agonist: LPS (TLR4) 0.1 ug/mL,0.482
Cc1noc(C)c1-c1cnc2c(-c3ccc(C(=O)O)cc3)cn(C(C)c3ccccn3)c2c1 (configuration not stated) (library stock concentration (final ~1000-fold dilution): 10 mM),IRF Lucia reporter activity,RAW-Dual [1]; [4],0.288
same,IRF Lucia reporter activity,RAW-Dual [1]; agonist: LPS (TLR4) 0.1 ug/mL,0.123
Nc1c(CC(=O)O)cccc1C(=O)c1ccc(Br)cc1 (library stock concentration (final ~1000-fold dilution): 10 mM),IRF Lucia reporter activity,RAW-Dual [1]; [4],1.1
same,IRF Lucia reporter activity,RAW-Dual [1]; agonist: LPS (TLR4) 0.1 ug/mL,0.906
Nc1c(CC(=O)O)cccc1C(=O)c1ccc(Br)cc1,IRF Lucia reporter activity,RAW-Dual [3]; [5],1.11
Cn1nccc1Nc1nccc(-c2cc3c(s2)C(C)(C)N(CCN2CCOCC2)C3=O)n1 (library stock concentration (final ~1000-fold dilution): 10 mM),IRF Lucia reporter activity,RAW-Dual [1]; [4],0.34
same,IRF Lucia reporter activity,RAW-Dual [1]; agonist: LPS (TLR4) 0.1 ug/mL,1.61
Cl.N=C(N)NC(=O)c1nc(Cl)c(N)nc1N.O.O,IRF Lucia reporter activity,"RAW-Dual [3]; library stock concentration (final ~1000-fold dilution): 10 mM water, cytotoxicity flag (confluency mask): not cytotoxic",1.41
Cl.N=C(N)NC(=O)c1nc(Cl)c(N)nc1N.O.O (library stock concentration (final ~1000-fold dilution): 10 mM water),IRF Lucia reporter activity,RAW-Dual [1]; [4],1.46
same,IRF Lucia reporter activity,RAW-Dual [1]; agonist: LPS (TLR4) 0.1 ug/mL,0.86
COc1cc2c(cc1OCCCN1CCCC1)N=C(N)C21CCC1 (library stock concentration (final ~1000-fold dilution): 10 mM),IRF Lucia reporter activity,RAW-Dual [1]; [4],1.23
same,IRF Lucia reporter activity,RAW-Dual [1]; agonist: LPS (TLR4) 0.1 ug/mL,1.01
COc1cc2c(cc1OCCCN1CCCC1)N=C(N)C21CCC1,IRF Lucia reporter activity,RAW-Dual [3]; [5],1.05
CC(=O)Oc1cc(C(C)C)c(OCCN(C)C)cc1C.Cl (library stock concentration (final ~1000-fold dilution): 10 mM),IRF Lucia reporter activity,RAW-Dual [1]; [4],0.96
same,IRF Lucia reporter activity,RAW-Dual [1]; agonist: LPS (TLR4) 0.1 ug/mL,1.09
CC(=O)Oc1cc(C(C)C)c(OCCN(C)C)cc1C.Cl,IRF Lucia reporter activity,RAW-Dual [3]; [5],1.14
CCN(CC)C(=O)/C(C#N)=C/c1cc(O)c(O)c([N+](=O)[O-])c1,IRF Lucia reporter activity,RAW-Dual [3]; [5],0.926
CCN(CC)C(=O)/C(C#N)=C/c1cc(O)c(O)c([N+](=O)[O-])c1 (library stock concentration (final ~1000-fold dilution): 10 mM),IRF Lucia reporter activity,RAW-Dual [1]; [4],1.01
same,IRF Lucia reporter activity,RAW-Dual [1]; agonist: LPS (TLR4) 0.1 ug/mL,0.843
Cc1cc(F)c(Nc2ncnc3cc(OCc4ccccc4)ccc23)cc1O.Cl,IRF Lucia reporter activity,RAW-Dual [3]; [5],0.891
Cc1cc(F)c(Nc2ncnc3cc(OCc4ccccc4)ccc23)cc1O.Cl (library stock concentration (final ~1000-fold dilution): 10 mM),IRF Lucia reporter activity,RAW-Dual [1]; [4],0.0598
same,IRF Lucia reporter activity,RAW-Dual [1]; agonist: LPS (TLR4) 0.1 ug/mL,0.95
COc1ccc(NC(=O)c2ccc(C(=N)N(C)C)cc2)c(C(=O)Nc2ccc(Cl)cn2)c1 (library stock concentration (final ~1000-fold dilution): 10 mM),IRF Lucia reporter activity,RAW-Dual [1]; [4],0.865
same,IRF Lucia reporter activity,RAW-Dual [1]; agonist: LPS (TLR4) 0.1 ug/mL,1.15
COc1ccc(NC(=O)c2ccc(C(=N)N(C)C)cc2)c(C(=O)Nc2ccc(Cl)cn2)c1,IRF Lucia reporter activity,RAW-Dual [3]; [5],1.07
CCS(=O)(=O)N1CCC(C(C)n2c(C)c(C(=O)NCc3c(OC)cc(C)[nH]c3=O)c3ccccc32)CC1 (configuration not stated) (library stock concentration (final ~1000-fold dilution): 10 mM),IRF Lucia reporter activity,RAW-Dual [1]; [4],1.15
same,IRF Lucia reporter activity,RAW-Dual [1]; agonist: LPS (TLR4) 0.1 ug/mL,1.12
CCOc1ccc(CC2NC(=O)CCSSCC(C(=O)N3CCCC3C(=O)NC(CCCN)C(=O)NCC(N)=O)NC(=O)C(CC(N)=O)NC(=O)C(C(C)O)NC(=O)C(C(C)CC)NC2=O)cc1 (configuration not stated) (library stock concentration (final ~1000-fold dilution): 10 mM water),IRF Lucia reporter activity,RAW-Dual [1]; [4],1.44
same,IRF Lucia reporter activity,RAW-Dual [1]; agonist: LPS (TLR4) 0.1 ug/mL,1.02
CN1CCc2cc(Nc3ncc(C4CC4)c(NCCCNC(=O)C4CCC4)n3)ccc2C1 (library stock concentration (final ~1000-fold dilution): 10 mM),IRF Lucia reporter activity,RAW-Dual [2]; [4],0.0101
same,IRF Lucia reporter activity,RAW-Dual [2]; agonist: LPS (TLR4) 0.1 ug/mL,0.0124
Cl.Cl.O=C(O)c1ccc(CN2CCC(CNC3CC3c3ccccc3)CC2)cc1 (configuration not stated) (library stock concentration (final ~1000-fold dilution): 10 mM),IRF Lucia reporter activity,RAW-Dual [1]; [4],1.01
same,IRF Lucia reporter activity,RAW-Dual [1]; agonist: LPS (TLR4) 0.1 ug/mL,1.31
Cl.c1ccc(CN(CC2=NCCN2)c2ccccc2)cc1,IRF Lucia reporter activity,RAW-Dual [3]; [5],1.11
Cl.c1ccc(CN(CC2=NCCN2)c2ccccc2)cc1 (library stock concentration (final ~1000-fold dilution): 10 mM),IRF Lucia reporter activity,RAW-Dual [1]; [4],1.04
same,IRF Lucia reporter activity,RAW-Dual [1]; agonist: LPS (TLR4) 0.1 ug/mL,1.19
CC(=O)c1ccc2c(c1)Nc1ccccc1S2,IRF Lucia reporter activity,RAW-Dual [3]; [5],1.06
CC(=O)c1ccc2c(c1)Nc1ccccc1S2 (library stock concentration (final ~1000-fold dilution): 10 mM),IRF Lucia reporter activity,RAW-Dual [1]; [4],0.979
same,IRF Lucia reporter activity,RAW-Dual [1]; agonist: LPS (TLR4) 0.1 ug/mL,1.21
C=CC(=O)NC1CCOCC1Nc1ncc2cc(-c3c(Cl)c(OC)cc(OC)c3Cl)ccc2n1 (configuration not stated) (library stock concentration (final ~1000-fold dilution): 10 mM),IRF Lucia reporter activity,RAW-Dual [1]; [4],0.285
same,IRF Lucia reporter activity,RAW-Dual [1]; agonist: LPS (TLR4) 0.1 ug/mL,1.24
